This is one part of the list. Results with a measured potency or affinity are listed apart.
Tested on: Pseudomonas aeruginosa
Settings: Concentration 32 ug.mL-1; ASSAY_TEST Inhibition of Bacterial Growth; detection method Absorption (OD600); MEDIA CAMHB; plate type 384well; NBS; CORNING #3640; time 18 hr

| Structure (SMILES) | Inhibition [%] |
| --- | --- |
| C#CCN(C)c1nc(NCC2CCN(Cc3ccccc3)CC2)c(C#N)c(-c2ccccc2)c1C#N.Cl | 34.2 |
| CCOC(=O)C1=C(C)OC(N)=C(C#N)C1c1ccc(OC)cc1 (stereo unspecified) | 34.42 |
| CCC(CC)NNC(=O)c1cc2ccccc2n1C | 18.54 |
| N#CCC(=C(C#N)C#N)c1ccccc1 | 7.89 |
| CC(=O)CCc1c[nH]c2ccccc12 | 43.48 |
| Cn1c(C(=O)N2CCOCC2)cc2cc(OCCCC3CCN(Cc4ccccc4)CC3)ccc21 | 8.58 |
| O=C1SC(SCc2ccccc2)=NC1=Cc1ccc2c(c1)OCO2 | -7.63 |
| N#Cc1cc(C#N)c(NCCO)nc1N | 17.26 |
| C=C1CN(C)c2c(C#N)cc(C#N)c(=N)n21 | 1.19 |
| COc1[nH]c(=O)ccc1C#N | 7.53 |
| C#CCN(C)Cc1cc2cc(OCCC3CCN(Cc4ccccc4)CC3)ccc2n1C.Cl | 5.95 |
| O=C(O)/C(=C\c1ccccc1)NC(=O)c1ccccc1 | 40.01 |
| O=Cc1c(-c2ccc(Br)cc2)nc2ccccn12 | 37.6 |
| CCOC(=O)c1cc2cc(OC)ccc2n1C | 2.43 |
| Cc1ccc2nc(Cl)c(/C=N/C(C)(C)C)cc2c1 | 4.45 |
| Cc1ccc2[nH]c(=O)c(C=O)cc2c1 | 7.63 |
| O=C(N/N=C/c1c[nH]c2ccccc12)c1ccco1 | 20.62 |
| CC(=O)Oc1cccc(C=C2N=C(c3ccccc3)OC2=O)c1 | 4.25 |
| Clc1ccc(-c2cn3ccccc3n2)cc1 | 19.16 |
| COc1ccc(-c2cc(-c3cc4ccccc4nc3Cl)cc(=O)[nH]2)cc1 | 8.12 |
| Cc1ccc(C2c3ccc4ccccc4c3Oc3nc4c(c(N)c32)CCCC4)cc1.Cl (stereo unspecified) | 32.3 |
| O=C(NNCc1ccco1)c1cc2ccccc2[nH]1 | 13.15 |

| Structure (SMILES) | Inhibition [%] |
| --- | --- |
| COc1ccc2c(c1)cc(CO)n2C | -3.06 |
| N#Cc1cc(C#N)c(N2CCCC2)nc1N | 9.99 |
| NOC(=O)C1CCN(Cc2ccccc2)CC1 | 28.79 |
| COc1cccc(C2c3ccc4ccccc4c3OC(=NBr)C2(Br)C#N)c1 (stereo unspecified) | -1.91 |
| C/C(Cc1ccccc1)=N\NC(=O)c1c[nH]c2ccccc12 | 12.42 |
| CC1(C)OC(=O)C(=Cc2ccc([N+](=O)[O-])cc2)C(=O)O1 | 40.05 |
| CNCc1cc2ccccc2n1C.Cl | 42.1 |
| N#CC1=C(Cl)Oc2ccc3ccccc3c2C1c1ccccc1 (stereo unspecified) | 18.65 |
| COc1ccc(C2c3c(ccc4ccccc34)OC(=NBr)C2(Br)C#N)cc1 (stereo unspecified) | -0.59 |
| COc1ccc2c(c1)cc(CN)n2C | 26.76 |
| C#CCNc1nc(N)c(C#N)c(-c2ccccc2)c1C#N | 14.04 |
| CCOC(=O)c1c(C)[nH]c(=O)c(C#N)c1-c1ccccc1 | 11.5 |
| CC(C)CC(C)NNC(=O)c1cc2ccccc2[nH]1 (stereo unspecified) | -5.28 |
| CC(C)C(=O)N/N=C/c1c[nH]c2ccccc12 | 43.02 |
| Cc1ccc(C2c3ccc4ccccc4c3Oc3nc4c(c(N)c32)CCCC4)cc1 (stereo unspecified) | -0.1 |
| N#Cc1cc(C#N)c(NCCC2CCN(Cc3ccccc3)CC2)nc1N | 8.64 |
| COc1cc(C2C(C#N)=C(N)Oc3c2ccc2ccccc32)ccc1O (stereo unspecified) | -11.89 |
| CCOc1nc2nc(CCc3ccccc3)ccc2c(-c2ccccc2)c1C#N | 11.27 |
| CSC1=NC(=Cc2cn(C(c3ccccc3)(c3ccccc3)c3ccccc3)c3ccccc23)C(=O)N1C | -21.17 |
| Cc1nc2c3cnn(-c4ccccc4)c3ncn2n1 | 20.11 |
| CC#CCN(C)Cc1cc2cc(OCc3ccccc3)ccc2n1C.O=C(O)C(=O)O | 46.42 |
| COc1ccc(C2C(C#N)=C(N)Oc3ccc4ccccc4c32)cc1OC (stereo unspecified) | 42.73 |

| Structure (SMILES) | Inhibition [%] |
| --- | --- |
| COc1ccc(C2c3ccc4ccccc4c3OC(=NBr)C2(Br)C#N)cc1OC (stereo unspecified) | -3.09 |
| C#CCN(C)c1nc(NCCC2CCN(Cc3ccccc3)CC2)c(C#N)cc1C#N.Cl | 20.22 |
| Cn1cc(C=O)c2ccccc21 | 30.5 |
| N#C[C@]1(Br)C(=N)Oc2ccc3ccccc3c2[C@@H]1c1ccc([N+](=O)[O-])cc1 | 7.04 |
| Cc1[nH]c2ccc(OCc3ccccc3)cc2c1C(=O)NN | 19.45 |
| Cl.OCC1CCN(Cc2ccccc2)CC1 | 20.26 |
| Cc1ccc(-c2c(C#N)c(N)nc3c2S(=O)(=O)OC3(C)C)cc1 | 25.27 |
| CCOC(=O)C1=C(C)OC(N)=C(C#N)C1c1ccncc1 (stereo unspecified) | 3.69 |
| CCOC(N)=CC#N | -10.84 |
| COc1ccc(C2C(C#N)=C(N)Oc3[nH]nc(C)c32)cc1 (stereo unspecified) | -9.91 |
| COc1ccc(C2c3c(nc4c(c3N)CCCC4)Oc3ccc4ccccc4c32)cc1 (stereo unspecified) | 16.04 |
| Nc1ccccc1C(=O)N/N=C/c1c[nH]c2ccccc12 | 37.43 |
| C#CCNc1nc(NC2CCN(Cc3ccccc3)CC2)c(C#N)c(-c2ccccc2)c1C#N | -10.53 |
| COc1ccccc1[C@H]1c2c(ccc3ccccc23)O/C(=N\Br)[C@@]1(Br)C#N | 7.92 |
| C=CCNc1nc(N)c(C#N)cc1C#N | 19.11 |
| COc1ccc(CNNC(=O)c2cc3ccccc3[nH]2)cc1O | 19.79 |
| Cl.Cl.Cn1c(CNc2ccccc2)cc2cc(OCCCC3CCN(Cc4ccccc4)CC3)ccc21 | 22.59 |
| C#CCN(C)Cc1cc2cc(OCOc3ccc4c(c3)cc(CN(C)CC#C)n4C)ccc2n1C | 9.21 |
| CN(C)c1nc(N)c(C#N)cc1C#N | 42.85 |
| Nc1nc(N)c(C=O)c(-c2ccccc2)c1C=O | -6.56 |
| Nc1c2c(nc3c1C(c1c(Cl)cccc1Cl)c1ccc4ccccc4c1O3)CCCC2 (stereo unspecified) | 29.99 |
| N#CC1(Br)C(=NBr)Oc2ccc3ccccc3c2C1c1cccc([N+](=O)[O-])c1 (stereo unspecified) | -8.4 |

| Structure (SMILES) | Inhibition [%] |
| --- | --- |
| Cn1c(C(=O)O)cc2ccccc21 | 35.26 |
| Cc1nc(Nc2ccccc2)c2c(C)nn(-c3ccccc3)c2n1 | 14.25 |
| N#Cc1cc2c(N)c3c(nc2nc1N1CCCCC1)CCCC3 | 37.52 |
| CCOC(=O)c1cc2cc(OC(=O)Oc3ccc([N+](=O)[O-])cc3)ccc2[nH]1 | 10.28 |
| CN(Cc1cn(Cc2ccccc2)nn1)Cc1cc2cc(OCCCC3CCN(Cc4ccccc4)CC3)ccc2n1C | 18.76 |
| Cl.NC1(C(=O)O)CC1c1ccccc1 (stereo unspecified) | 34.23 |
| O=C(NCc1ccccc1)c1cc2ccccc2[nH]1 | 7.26 |
| C#CCNc1nc(NCCCC2CCN(Cc3ccccc3)CC2)c(C#N)cc1C#N.Cl | -31.38 |
| N#CC1(Br)C(=NBr)Oc2c(ccc3ccccc23)C1c1cccc([N+](=O)[O-])c1 (stereo unspecified) | 1.12 |
| CNC(=O)c1cc2cc(OC)ccc2[nH]1 | 37.97 |
| CCOc1nc2nc(C)c(C=C3CCN(Cc4ccccc4)CC3)cc2c(-c2ccccc2)c1C#N | 15.48 |
| COc1ccc(-c2cc(-c3ccccc3)c(C#N)c(N)n2)cc1 | -16.55 |
| O=C(N/N=C/Cc1ccccc1)c1cc2ccccc2n1Cc1ccccc1 | 11.47 |
| COc1ccc(C2c3c(ccc4ccccc34)OC(=NBr)C2(Br)C#N)cc1OC (stereo unspecified) | -3.46 |
| O[C@H]1CC[C@H](NCc2ccccc2)CC1 | 27.35 |
| Cl.Nc1c2c(nc3c1C(c1ccccc1)c1c(ccc4ccccc14)O3)CCCC2 (stereo unspecified) | 33.82 |
| N#C/C(=C\c1ccccc1)C(=O)c1ccccc1 | 24.67 |
| NC(=O)c1cc2cc(OCc3ccccc3)ccc2[nH]1 | 14.94 |
| Nc1c2c(nc3c1c1ccccc1n3Cc1ccccc1)CCCC2 | 35.2 |
| COc1ccc2cc(C3C4=C(CC(C)(C)CC4=O)Oc4nc5c(c(N)c43)CCCC5)c(Cl)nc2c1 (stereo unspecified) | 7.66 |
| O=C1OC(c2ccccc2)=NC12CC2c1ccc([N+](=O)[O-])cc1 (stereo unspecified) | 38.36 |
| N#Cc1cc(C#N)c(NCCCCC2CCN(Cc3ccccc3)CC2)nc1N | 9.25 |

| Structure (SMILES) | Inhibition [%] |
| --- | --- |
| CC(C)(C)OC(=O)Nc1ccc(Br)cn1 | 8 |
| CC(=O)N1CC(=O)NC1=S | 42.84 |
| C#CCN1CCc2nc3nc(N(C)C)c(C#N)cc3c(N)c2C1 | 32.41 |
| C#CCN(C)c1nc(NCCCCC2CCN(Cc3ccccc3)CC2)c(C#N)cc1C#N | 0.72 |
| O=C(COc1ccc2ccccc2c1)NNCc1c[nH]c2ccccc12 | 21.76 |
| Nc1c2c(nc3c1C(c1ccccc1)c1ccc4ccccc4c1O3)CCCC2 (stereo unspecified) | 32.82 |
| CC1Cc2ccccc2N1/N=C/c1ccccc1 (stereo unspecified) | 16.29 |
| Cn1cc(C(=O)NN)c2ccccc21 | 1.41 |
| Nc1c2c(nc3c1CC(c1c(Cl)cccc1Cl)C(=O)N3)CCCC2 (stereo unspecified) | 11.78 |
| COc1nc2nc3c(c(N)c2cc1C#N)CCCC3 | 18.62 |
| Cn1ccnc1C1C2=C(CC(C)(C)CC2=O)Oc2nc3c(c(N)c21)CCCC3 (stereo unspecified) | -3.62 |
| Cc1cnc2ccc(Br)cn12 | 29.12 |
| CCOC(=O)C1=C(C)Nc2nc3c(c(N)c2C1c1ccc([N+](=O)[O-])cc1)CCCC3.Cl (stereo unspecified) | 39.54 |
| N#Cc1cc(C#N)c(NCCCC2CCN(Cc3ccccc3)CC2)nc1N | 8.97 |
| Cc1ccc(/C=C(\C#N)C(=O)c2ccccc2)cc1 | 27.43 |
| CC(=O)/C=C/C1CCN(Cc2ccccc2)CC1 | 12.99 |
| CC(=O)Nc1nc(Cl)c(C#N)c(-c2ccccc2)c1C#N | 14.84 |
| N#Cc1c(N)nc(N2CCCCC2)c(C#N)c1-c1ccccc1 | 17.98 |

From ChEMBL document CHEMBL4513135, “CO-ADD screening of IQOG CSIS (Spain) compounds”
